# Source: PMC4336329 (PLoS ONE, 2015)
# The campaign covered roughly 310,000 compounds. About 2,200 (0.71%) showed an effect of 50% or more. The effect is printed as a negative number. This is one part of the list.
# Molecular target: human ether-à-go-go-related gene (hERG) potassium channel (human, UniProt Q12809)
# Assay: primary screen, population patch clamp on CHO cells stably expressing hERG
# Sequence of human ether-à-go-go-related gene (hERG) potassium channel (Q12809 whole entry, looked up): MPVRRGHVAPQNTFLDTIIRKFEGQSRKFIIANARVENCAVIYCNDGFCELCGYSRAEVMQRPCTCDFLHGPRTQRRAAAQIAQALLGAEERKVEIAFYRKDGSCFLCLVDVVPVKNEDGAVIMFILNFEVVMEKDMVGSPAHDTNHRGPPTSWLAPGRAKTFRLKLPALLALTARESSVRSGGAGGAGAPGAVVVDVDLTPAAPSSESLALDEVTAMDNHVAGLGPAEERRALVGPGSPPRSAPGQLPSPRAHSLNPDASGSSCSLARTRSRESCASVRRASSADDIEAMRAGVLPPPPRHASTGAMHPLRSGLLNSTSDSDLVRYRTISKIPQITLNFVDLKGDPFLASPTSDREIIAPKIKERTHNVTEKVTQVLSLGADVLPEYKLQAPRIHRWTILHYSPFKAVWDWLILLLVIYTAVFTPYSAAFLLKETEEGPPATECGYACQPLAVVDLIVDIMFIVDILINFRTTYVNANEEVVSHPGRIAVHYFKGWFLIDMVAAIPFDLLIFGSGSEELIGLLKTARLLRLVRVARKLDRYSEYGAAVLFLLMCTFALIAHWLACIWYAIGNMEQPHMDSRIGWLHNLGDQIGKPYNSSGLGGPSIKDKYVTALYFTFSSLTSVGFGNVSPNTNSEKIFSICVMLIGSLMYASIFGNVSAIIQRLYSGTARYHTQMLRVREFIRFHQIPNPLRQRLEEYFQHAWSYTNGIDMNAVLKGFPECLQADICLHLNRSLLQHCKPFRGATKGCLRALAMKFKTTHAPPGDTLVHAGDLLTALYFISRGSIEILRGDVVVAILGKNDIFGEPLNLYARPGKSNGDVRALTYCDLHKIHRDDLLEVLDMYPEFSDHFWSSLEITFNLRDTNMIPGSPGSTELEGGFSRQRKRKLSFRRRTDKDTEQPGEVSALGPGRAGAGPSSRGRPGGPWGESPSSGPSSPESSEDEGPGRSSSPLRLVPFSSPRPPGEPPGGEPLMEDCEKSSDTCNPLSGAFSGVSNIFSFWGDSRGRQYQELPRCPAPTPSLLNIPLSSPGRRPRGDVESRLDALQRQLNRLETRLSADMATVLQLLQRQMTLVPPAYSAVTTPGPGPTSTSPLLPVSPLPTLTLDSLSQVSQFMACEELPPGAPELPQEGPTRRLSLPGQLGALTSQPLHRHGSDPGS
row,Compound,"hERG current change (%, negative = inhibition) at 1uM [%]"
1,CC(CNC(=O)CCS(=O)(=O)c1ccc2c(c1)NC(=O)CO2)c1ccccc1 (stereo not drawn),-17.1
2,NC(=O)C1CCN(C(=O)CCCCCn2c(=O)[nH]c3ccsc3c2=O)CC1,3.78
3,CC(C)(c1ccccc1)c1ccc(OCC(O)CN2CCCC2)cc1.Cl (stereo not drawn),8.92
4,C=CCn1c(O)c(/C=N/N2CCCCC2c2cccnc2)c(=O)[nH]c1=S (stereo not drawn),-1.85
5,CCN(Cc1ccccc1)C(=O)CC1Oc2ccccc2NC1=O (stereo not drawn),-6.32
6,Cc1c(C(=O)NCc2ccc3c(c2)OCO3)oc2ccc(S(=O)(=O)N3CCCCC3)cc12,0.566
7,S=C(Nc1ccccc1Cl)N(CCCN1CCOCC1)Cc1ccccn1,8.05
8,O=C(CN(CC1CCCO1)C(=O)CNS(=O)(=O)c1ccc(Cl)cc1)NC1CCCC1 (stereo not drawn),11.7
9,O=C(CSc1ncnc2c1sc1ccccc12)Nc1ccc(Br)cc1,-0.877
10,Cc1ccc(S(=O)(=O)NC2c3cccc4cccc(c34)C2Sc2nncn2C)cc1 (stereo not drawn),20.8
11,COc1ccc(OC)c(NC(=O)C2CCN(C(=O)C3CC(=O)N(c4ccc(C)cc4)C3)CC2)c1 (stereo not drawn),3.42
12,Cc1ccc(-c2nnc(NC(=O)C3=COCCO3)o2)c(C)c1,11.8
13,CNC(=S)NNC(=O)Cc1ccc(OC)cc1,11.1
14,COc1ccc(/C=N/NC(=O)CCc2c(C)n[nH]c2C)cc1O,-0.301
15,COC(=O)C(C#N)c1nc2ccccc2nc1N1CCCC1 (stereo not drawn),11
16,O=c1[nH]c2ccc(Cl)cc2c(-c2ccccc2)c1SC(=S)N1CCCCC1,10.8
17,O=C(C1CCN(S(=O)(=O)c2ccccc2)CC1)N1CCC1,13
18,C=CCNC(=O)c1csc(-c2ccccc2)n1,-8.65
19,O=C(C1=COCCO1)N1CCN(S(=O)(=O)c2cccc(F)c2)CC1,15.5

row,Compound,"hERG current change (%, negative = inhibition) at 1uM [%]"
1,Oc1ccccc1N=N/C(=N/Nc1ccccc1O)c1ccccc1,1.42
2,CC(=O)CCC1CC(c2ccc(Cl)cc2)=NO1 (stereo not drawn),8.98
3,CC1=C(C(=O)Nc2ccccc2)C(c2ccccn2)n2ncnc2N1 (stereo not drawn),10.3
4,COc1ccc(OC)c(CNCCc2ccc(OC)c(OC)c2)c1.O=C(O)C(=O)O,13.8
5,COc1ccc(CCN2C(=O)NC(NC(=O)CC(C)C)(C(F)(F)F)C2=O)cc1OC (stereo not drawn),12.9
6,CN(C)S(=O)(=O)n1cc(/C=C(\NC(=O)c2ccccc2F)C(=O)N2CCOCC2)c2ccccc21,14.7
7,COc1ccc(-n2nc(C(=O)NCC(=O)NC3CCCCC3)c3ccccc3c2=O)cc1,18.8
8,Cc1nc2ccc(NS(=O)(=O)c3ccccc3F)cc2s1,8.37
9,CC(C)CCNC(=O)c1onc(CSc2ccc(F)cc2)c1C(=O)NCCC(C)C,14.7
10,COC(=O)CNC(=O)CNC(=O)c1nn(-c2ccc(OC)c(OC)c2)c(=O)c2ccccc12,12.5
11,Cc1ccccc1-n1cc(CNC(=O)CCc2nnc(CCc3ccccc3)o2)cn1,0.7
12,Cc1ccc(Nc2nc(C(=O)N3CCC(C(=O)NC(C)C)CC3)cs2)cc1,11.3
13,Cc1ccc(S(=O)(=O)NC(Cc2c[nH]c3ccccc23)C(=O)O)cc1 (stereo not drawn),-2.2
14,O=C(COC(=O)CNC(=O)c1cccc([N+](=O)[O-])c1)Nc1nc2ccccc2s1,1.22
15,CCc1ccc(C(=O)Nc2nnn(CC)n2)cc1,-6.71
16,COc1ccc(C2SCC(=O)N2CC23CC4CC(CC(C4)C2)C3)cc1 (stereo not drawn),1.73
17,Cc1ccc(CN2CCCN(Cc3c(F)cccc3Cl)S2(=O)=O)cc1,17.1
18,Cc1c(Cl)cccc1NC(=S)N1CCc2ccccc2C1,12
19,O=C(CSc1nnc(CCCO)n1-c1ccccc1)Nc1nccs1,2.18

row,Compound,"hERG current change (%, negative = inhibition) at 1uM [%]"
1,Nc1cc(=O)[nH]c(SCC(=O)NNC(=O)c2ccccc2)n1,16.6
2,Cc1c(Cl)ccc(S(=O)(=O)NCCN2CCOCC2)c1Cl,3.34
3,COc1ccc(CC(=O)OCC(=O)Nc2cccc(Br)c2)cc1,4.98
4,COC(=O)c1cc(-c2ccc(OC)c(OC)c2)n[nH]1,13.3
5,Cc1cc(C)cc(C(=O)N2CCC(C(N)=O)CC2)c1,10.2
6,Cc1cccc(NC(=O)N2CCN(Cc3ccc4c(c3)OCO4)CC2)c1C,10
7,O=C(Nc1nccs1)c1ccc(-c2cccc([N+](=O)[O-])c2)o1,14.8
8,O=C(NCc1cccnc1)c1cc(-c2cccs2)on1,-28.7
9,CC(C)[C@H](NC(=O)Cc1ccccc1)C(=O)OCc1cc(=O)n2c(n1)sc1ccccc12,5.98
10,COc1ccccc1NS(=O)(=O)c1ccc(C(=O)Nc2ncccc2O)cc1,8.31
11,CCN1CCN(C2CCCCC2NS(=O)(=O)c2ccccc2)CC1 (stereo not drawn),9.17
12,Cc1ccc(NC(=O)Cn2c(=O)oc3ccccc32)c(C)c1,16.5
13,O=C1CCCN1CCCNc1ccc(S(=O)(=O)N2CCCCC2)cn1,-2.53
14,CCCCNC(=O)O[C@H]1C[C@@H]2CCN3C(=O)CCC(C)(C)[C@H](C1)[C@H]23,-11
15,COc1cc(/C=N/n2cnc3c(sc4nc(C)cc(C)c43)c2=O)ccc1O,14.3
16,Brc1cccc(-c2nnco2)c1,4.69
17,CCOc1cc(/C=C/C(=O)N(CC)CC(=O)NCc2cccs2)cc(Cl)c1OC,0.567
18,O=C1NC(Cc2c[nH]c3ccccc23)C(=O)N1Cc1cccc2ccccc12 (stereo not drawn),9.96
19,COc1ccc(NC(=O)N(Cc2cccnc2)Cc2ccccc2Cl)c(OC)c1,-1.41
